# Measured values reported in PubChem BioAssay AID485294 (National Center for Advancing Translational Sciences (NCATS), 2010).
# The campaign covered roughly 370,000 compounds. About 150 (0.041%) were called active. Inconclusive results, whose numbers are uncertain, are shown with a selection of clear calls. Calls follow the shape of the dose curve; as a rule, active = well fitted inhibition curve with a large enough effect; inconclusive = small, poorly fitted or top-dose-only effect; inactive = flat fitted curve, though single readings scatter. No potency is given beside an inconclusive call; the fits are too rough.
# Target: Beta-lactamase (Escherichia coli (strain K12)) (UniProt P00811)
# Assay: qHTS Inhibitors of AmpC Beta-Lactamase (assay with detergent); also: nearly all actives have a fitted effect of over 25% in size
# Settings: AmpC hydrolysis of nitrocefin, absorbance 480 nm, 0.01% Triton; series mostly up to 114 µM
# How it was run: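 AmpC (5.3 nM in the dispensed reagent) in 20 mM phosphate pH 7.0 with 0.01% (detergent screen) or 0.0001% Triton X-100 was preincubated with compounds for 15 min at room temperature. Nitrocefin was then added from an 800 uM solution, and hydrolysis was followed at 480 nm.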
# Potency is read from the fitted curve at half-maximal effect; tags tell the direction and shape of the fitted curve.
# Sequence of UniProt P00811 (P00811 whole entry, looked up): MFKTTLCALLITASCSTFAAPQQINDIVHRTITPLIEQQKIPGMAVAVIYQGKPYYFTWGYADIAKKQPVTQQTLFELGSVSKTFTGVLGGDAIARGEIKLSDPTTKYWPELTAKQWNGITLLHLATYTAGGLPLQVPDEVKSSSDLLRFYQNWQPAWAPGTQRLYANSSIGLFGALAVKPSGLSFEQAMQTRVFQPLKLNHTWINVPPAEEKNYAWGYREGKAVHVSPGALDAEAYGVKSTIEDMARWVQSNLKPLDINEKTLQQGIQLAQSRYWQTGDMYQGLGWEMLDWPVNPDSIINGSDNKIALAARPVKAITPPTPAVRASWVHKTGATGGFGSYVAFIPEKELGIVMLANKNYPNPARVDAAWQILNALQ
row,Compound,Potency
1,CCN(CC(=O)Nc1c(F)cccc1F)C(=O)/C=C/c1ccc2ccccc2n1,"inconclusive [inhibitor, full curve, poor fit]"
2,COc1cc(C2C(C#N)=C(N)N(c3cccnc3)C3=C2C(=O)CC(C)(C)C3)ccc1O (stereo unspecified),"inconclusive [inhibitor, full curve, poor fit]"
3,COc1ccc(NC(=O)C(=O)Nc2cccc3cccnc23)c(OC)c1,"inconclusive [inhibitor, full curve, poor fit]"
4,CN(C(=O)c1cc2c(Cl)nc3ccccc3c2s1)c1cccc(C(F)(F)F)c1,"inconclusive [inhibitor, single point]"
5,CCn1c(C(=O)Nc2c(C)cccc2C)cc2sc(Cl)cc21,inactive
6,CC1(C)CC(=O)/C(=C(/O)Cc2ccccc2)C(=NCCc2ccccc2)C1,"inconclusive [inhibitor, full curve, poor fit]"
7,CC(=O)N1CCN(c2ccc(NC(=O)c3ccc4c(c3)OCCO4)cc2)CC1,"inconclusive [inhibitor, full curve, poor fit]"
8,Cc1nn(CC(=O)N2CCC(C)CC2)c(=O)c2cc3occc3n12,inactive
9,COc1cc2ccc3c(CCN(C)C)cc(OC)c(OC)c3c2cc1OC,"inconclusive [inhibitor, full curve]"
10,Cc1cccc(C2CC(c3ccc(Br)cc3)Nc3nc(N)nn32)c1 (stereo unspecified),"inconclusive [inhibitor, full curve, poor fit]"
11,Cc1ccc2c(c1)C1CC(C)(O2)N(c2cccc(C(=O)N3CCN(c4ccccn4)CC3)c2)C(=O)N1 (stereo unspecified),"inconclusive [inhibitor, full curve, poor fit]"
12,Cc1ccc(OCC(O)Cn2c(=N)n(CCN3CCOCC3)c3ccccc32)cc1 (stereo unspecified),"inconclusive [inhibitor, full curve, poor fit]"
13,N#CCCN(Cc1cccnc1)C(=S)NC1CC2C=CC1C2 (stereo unspecified),"inconclusive [inhibitor, full curve, poor fit]"
14,CC(=O)c1cccc(NC2c3ccccc3C(=O)N2Cc2ccc3c(c2)OCO3)c1 (stereo unspecified),"inconclusive [inhibitor, full curve, poor fit]"
15,O=C(c1cn(-c2ccccc2)nc1-c1cccnc1)N1CCCCC1,"inconclusive [inhibitor, full curve, poor fit]"
16,O=C1N/C(=N\N=C\c2cccs2)SC1Cc1cccc(Cl)c1 (stereo unspecified),"inconclusive [inhibitor, full curve, poor fit]"
